According to PubChem BioAssay AID1240 (Sanford-Burnham Center for Chemical Genomics, 2008):
Among all 50,000 compounds or so, about 800 (1.6%) showed an effect of 50% or more. The list shows a part of the results.

Biological target: Bcl-2-like protein 10 (Homo sapiens) (UniProt Q9HD36)
Experiment: Phenotype converters, Bcl-B/TR3 peptide binding displacement, primary biochemical FP (AID 1240);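 also: 0% = Bcl-B with tracer peptide and DMSO and 100% = tracer peptide lacking Bcl-B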
Details: GST-Bcl-B / FITC-TR3 peptide fluorescence polarization; stronger effect = higher value; compound at 3.75 mg/L

UniProt Q9HD36, sequence (Q9HD36 whole entry, looked up): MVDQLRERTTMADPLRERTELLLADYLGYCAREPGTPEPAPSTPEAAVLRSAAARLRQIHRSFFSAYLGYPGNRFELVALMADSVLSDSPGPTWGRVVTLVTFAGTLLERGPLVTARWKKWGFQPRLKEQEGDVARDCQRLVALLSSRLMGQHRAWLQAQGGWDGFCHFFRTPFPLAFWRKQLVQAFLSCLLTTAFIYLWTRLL

| Compound | displacement |
| --- | --- |
| Cc1ccc(CN2CCN(N=Cc3c(O)ccc4ccccc34)CC2)c(C)c1 | 0.3% |
| C=C(C)CSc1nnc2n(-c3ccc(OC)cc3)c(=O)c3c4c(sc3n12)CCCC4 | 3% |
| CCc1c(C)sc(NC(=O)C2C3C=CC(C3)C2C(=O)O)c1C(=O)OC(C)C (stereo not given) | 7.4% |
| CC(C)NC(=O)C1C(c2ccccc2)=C1c1ccccc1 | -4.6% |
| CCOc1cc(/C=N/NC(=O)CSc2nc3ccccc3n2Cc2ccccc2)ccc1O | -9.5% |
| O=C(C1CCCCC1)N1CCN(c2ccc([N+](=O)[O-])cc2)CC1 | -5.1% |
| NS(=O)(=O)c1cccc(NC(=O)c2ccc(Br)o2)c1 | -2.6% |
| CCc1cc(C)cc(OCCOc2ccc(/C=N/n3cnnc3)cc2)c1 | -2.6% |
| O=C1C2C(C(=O)N1/N=C/c1ccc([N+](=O)[O-])cc1)C1C=CC2C12CC2 (stereo not given) | 4.4% |
| CC(=NCc1ccccc1)c1c(C)[nH]n(-c2nc3ccccc3s2)c1=O | 12.2% |
| NC1=NC(=O)/C(=C/c2ccccc2[N+](=O)[O-])S1 | 11% |
| C=CCN=C(C)C1=C(O)C(C(=O)OC)C(C)(C)CC1=O (stereo not given) | -6.4% |
| O=C(c1cccc([N+](=O)[O-])c1)c1ccc2c(c1)C(=O)N(c1ccccn1)C2=O | 4.4% |
| Cc1ccc(C(=O)Nc2ccc(S(=O)(=O)N=C(N)N)cc2)cc1 | -3.2% |
| COc1ccc(CCNc2cc(N3CCCC3)ccc2[N+](=O)[O-])cc1OC | 0% |
| O=C(Nc1ccc(Br)cn1)c1cc(F)c(F)cc1Cl | 9.1% |
| O=C(c1ccccc1F)N1CCN(c2ccc([N+](=O)[O-])cc2C(F)(F)F)CC1 | 12.4% |
| Oc1ccc(/C=N/Nc2cc(N3CCCC3)nc(N3CCCC3)n2)cc1O | 15.5% |
| COc1cccc(/C=C2/C(=O)NN(c3ccc(I)cc3)C2=O)c1 | 7.8% |
| CC1CCC/C(=C(\C#N)c2nc(-c3cc4ccccc4oc3=O)cs2)C1 (stereo not given) | -1.3% |
| CC(C)(C)N(C=C(Cl)Cl)C(=O)NC1CCCCC1 | -7.7% |
| CCOC(=O)CSc1nnc(-c2cccs2)n1-c1ccccc1 | -6.5% |

| Compound | displacement |
| --- | --- |
| CC1(C)CC(NC(=O)/C=C/C(=O)O)CC(C)(C)N1 | 10% |
| Cc1c(OCC(=O)c2ccccc2)ccc2c(-c3ccccc3)cc(=O)oc12 | 1.4% |
| CC(C)c1cccc(C(C)C)c1OCCCCN1CCOCC1 | 5.8% |
| COc1ccc(Cc2noc(-c3ccc([N+](=O)[O-])cc3)n2)cc1OC | -4.5% |
| CCOC(=O)C1=C(C)NC2=C(C(=O)c3ccccc32)C1c1ccc(OC)cc1 (stereo not given) | -8.3% |
| Cc1cc(OCC(=O)Nc2ccc(-c3nc4ccccc4s3)c(O)c2)ccc1Cl | 12.4% |
| COC(=O)c1cc(-c2ccccc2)n(-c2ccccc2)n1 | 2% |
| CCc1c(C#N)c(N)nc(SCC(=O)c2ccc(C)cc2)c1C#N | 0.6% |
| Cc1cccc(/C=N/NC(=O)c2cncc(Br)c2)c1O | 2.4% |
| CCOC(=O)C(CCOCCOc1c(C)cc(Cl)cc1Cl)C(=O)OCC | -5.7% |
| COc1ccc(CN2CCN(Cc3cccc(Cl)c3)CC2)cc1OC | -10.5% |
| O=C(NC(Cc1ccc([N+](=O)[O-])cc1)C(=O)NCc1ccco1)OCc1ccccc1 (stereo not given) | 12.8% |
| COc1ccc(NC(=O)CC2CCCCC2)cc1 | 2% |
| CN1CCN(c2ccc(/C=C3\Sc4ccccc4C3=O)cc2[N+](=O)[O-])CC1 | 8% |
| O=C(Nc1ccc(O)c(-c2nc3ccccc3o2)c1)c1ccc2c(c1)OCCO2 | 3.5% |
| Oc1ccc(O)c([S+]2CCCC2)c1 | 10.3% |
| COc1ccc(-c2nnc(-c3cccc([N+](=O)[O-])c3)o2)cc1 | 5.8% |
| CCOC(=O)C1=C(C)N=c2s/c(=C\c3ccc(OC)c(OC)c3OC)c(=O)n2C1c1ccc(Cl)cc1 (stereo not given) | 152% |
| CS(=O)(=O)Nc1nnc(SCC(=O)N(c2ccccc2)c2ccccc2)s1 | 0.9% |
| O=C(N=C1SCC(=O)N1c1ccccc1)c1ccco1 | -7.3% |
| O=C(NC(=S)Nc1cccnc1)c1ccc(Cl)cc1 | 1.1% |
| O=C(CCCN1C(=O)c2cccc3cccc(c23)C1=O)Nc1ccccn1 | -1.3% |

| Compound | displacement |
| --- | --- |
| O=C(O)c1cc(NC(=O)c2ccc(Br)cc2)cc(C(=O)O)c1 | 5.7% |
| O=S(=O)(Nc1ccc(Cl)c(C(F)(F)F)c1)c1ccccc1 | 11.6% |
| COc1ccc(NC(=O)Nc2cccc3cccnc23)cc1 | -0.9% |
| C=CCc1cc(/C=C2\C(=O)NC(=O)N(c3ccc(C)cc3)C2=O)cc(OCC)c1O | 1.7% |
| CC1=C(C(=O)Nc2ccc(C)cc2)C(c2ccc(Cl)cc2Cl)NC(=S)N1 (stereo not given) | -0.6% |
| COc1ccc(-c2cc(-c3ccc(C)cc3)nc(N/N=C/c3cccc(OC)c3O)n2)cc1OC | 3.3% |
| COc1ccc(NC(=O)c2cccc3c2-c2ccc(I)cc2C3)cc1 | 1.1% |
| Cc1ccc(C(=O)Nc2sc3c(c2C(N)=O)CCCCCC3)cc1 | 0.4% |
| O=C(NN1C(=O)/C(=C/c2ccc(Br)cc2)SC1=S)c1cccc(Cl)c1 | 6.3% |
| COc1ccc(/C=C/C(=O)Nc2ncc(Cc3cccc(C(F)(F)F)c3)s2)cc1 | 20.8% |
| COc1ccc(/C=C2/C(=O)NN(c3ccccc3)C2=O)c(OC)c1 | 2.1% |
| COc1cccc(NC(=O)CC(C)=O)c1 | -2.4% |
| COc1cc(/C=N\NC(=O)c2ccc(Br)cc2)cc(I)c1O | 6.8% |
| Cc1ccccc1NS(=O)(=O)c1ccc(NC(=O)c2ccc(C(F)(F)F)cc2)cc1 | -0.5% |
| Cc1ccc(-c2cc(-c3ccccc3)nc(N3CCCC3)n2)cc1 | 5.5% |
| COc1ccc(NC(=O)Nc2nnc(CCc3ccccc3)s2)cc1 | 6.9% |
| O=c1c2ccccc2c(-c2ccccc2)nn1Cc1cccc(Br)c1 | -4.4% |
| CSc1ccc(S(=O)(=O)N(CC(=O)Nc2ccc(C)cc2C)c2ccc(C)cc2)cc1 | 13.6% |
| O=S(=O)(Nc1cccc(-c2nc3ccccc3s2)c1)c1ccccc1 | 9.6% |
| C/C(=N\NC(=O)c1cc(C23CC4CC(CC(C4)C2)C3)[nH]n1)c1cccs1 | -5.8% |
| Cc1c(C(=O)Nc2ccc(Cl)cc2Cl)cccc1[N+](=O)[O-] | 10.6% |
| O=C1N=c2ccccc2=C1c1sc(=Nc2ccccc2)n(-c2ccccc2)c1O | -2.5% |

| Compound | displacement |
| --- | --- |
| Cc1ccc(-c2nc3cc(NC(=O)c4cccc([N+](=O)[O-])c4C)ccc3o2)cc1 | -3.3% |
| C/C(=C\C(=O)c1ccccc1)Nc1ccccc1O | 7.5% |
| CCOc1ccccc1-c1nc(=S)[nH][nH]1 | 4.5% |
| CCOc1ccc(N2C(=O)NC(=O)C(=S(C)C)C2=O)cc1 | 0.5% |
| COC(=O)c1ccccc1NC(=O)COc1cccc(C)c1C | 5.6% |
| CCC(C)C(=O)N1c2ccccc2C(N(C(=O)COc2ccccc2)c2ccccc2)CC1C (stereo not given) | -3.8% |
| Cn1c2c(c3cc(F)ccc31)CCCC2=O | 8.3% |
| O=C(Nc1c(Cl)cccc1Cl)C1CCCC1 | -9.7% |
| O=C(COc1ccc(Cl)cc1Br)N1CCN(c2ccccc2)CC1 | -11.4% |
| Cc1cccc(-c2noc(-c3ccco3)n2)c1 | 5.5% |
| CCOc1cccc(N2C(=O)/C(=C/c3cc(Cl)c(O)c(OC)c3)C(=O)NC2=S)c1 | -9.2% |
| COc1ccc(C(CC(=O)c2ccc(C)cc2)Nc2ccc(I)cc2)cc1OC (stereo not given) | -7% |
| O=C1CS/C(=C/C(=O)c2ccccc2)N1 | 3.8% |
| O=C(/C=C/c1ccccc1)NC(=S)Nc1ccccc1O | 10% |
| O=C(NCCCn1ccnc1)c1ccc(Cl)cc1 | -15.9% |
| O=S(=O)(Nc1ccc(F)cc1)c1ccc2c(c1)Cc1cc(S(=O)(=O)Nc3ccc(F)cc3)ccc1-2 | 7.9% |
| CCCCOc1cccc(C(=O)Nc2ccc(NC(=O)c3ccco3)c(OC)c2)c1 | 4.5% |
| CCc1cccc(CC)c1NC(=O)c1cc(-c2cccs2)nc2ccccc12 | -3.7% |
| COc1ccccc1CC(=O)Nc1cc([N+](=O)[O-])ccc1C | 19.3% |
| O=C1C2CCCCC2C(=O)N1CN1CCCCC1 (stereo not given) | 0.1% |
| COc1ccccc1NC(=O)Cc1ccccc1[N+](=O)[O-] | -10.1% |
| COc1ccccc1C(=O)N1CCN(C=O)CC1 | -14.1% |

| Compound | displacement |
| --- | --- |
| O=C(/C=C/c1ccc2c(c1)OCO2)Nc1ccncc1 | 3.9% |
| CN1CCN(C(=O)c2nn3c(C(F)(F)F)cc(-c4ccccc4)nc3c2Cl)CC1 | 0% |
| CCc1cc(C)cc(OCCOc2cccc(C=C3C(=O)NC(=S)NC3=O)c2)c1 | 3% |
| Cc1ccc(N2C(=O)C3C4C=CC(C)(O4)C3C2=O)cc1Br (stereo not given) | 7.6% |
| C=CCOCC(O)CS(=O)Cc1ccccc1 (stereo not given) | -8% |
| Cc1ccc(C(=O)Nc2ccc(Cl)cn2)cc1[N+](=O)[O-] | 9.6% |
| CN(C)c1ccc(/C=C2/C(=O)NN(c3ccc(Cl)cc3)C2=O)cc1Br | 1.9% |
| O=S(=O)(Nc1ccc(O)c(-c2c(O)ccc3ccccc23)c1)c1ccccc1 | 4.5% |
| O=C(Nc1cccc(I)c1)c1ccc(-c2ccccc2)cc1 | 21.8% |
| CC(=O)N1CCC(=O)N1c1ccccc1 | 11.5% |
| Cc1cc(=O)oc2c1ccc1oc(/C(=N\O)c3ccccc3)c(-c3ccccc3)c12 | -48.1% |
| O=C(c1ccc(I)cc1)N1CCc2ccccc21 | -0.9% |
| CN(C)/C=C1\Cc2ccccc2NC1=C(C#N)C#N | -27.8% |
| C=CCOc1ccc(Cl)cc1/C=C1/SC(=S)NC1=O | -2.6% |
| O=C1c2ccccc2C(=O)N1c1ccc2nc(SCc3ccc(F)cc3)sc2c1 | 6.6% |
| O=C(O)c1cccc(N2C(=O)C3C4C=CC(C4=C(c4ccccc4)c4ccccc4)C3C2=O)c1 (stereo not given) | 7.6% |
| O=C(Nc1ccc2c3c(cccc13)CC2)c1ccc(Br)o1 | 5.4% |
| CC1(C)CC(NC(=S)Nc2ccc([N+](=O)[O-])cc2)CC(C)(C)N1 | 10.3% |
| O=C(NC1C2CC3CC(C2)CC1C3)C(c1ccccc1)c1ccccc1 (stereo not given) | -7.8% |
| COc1cc(C2CC(=O)NC(SCC(N)=O)=C2C#N)cc(Br)c1O (stereo not given) | -27.9% |
| CC1=C(C(=O)Nc2ccc(C)cc2)C(c2ccc(F)cc2)NC(=S)N1 (stereo not given) | -4.5% |
| Cc1cc(C=C2C(=O)NC(=O)NC2=O)c(C)n1-c1ccc(Cl)cc1 | 106% |
